# Assay results as given in the supplement of paper PMC8728848.
# Some of the results follow.
# Columns and labels:
# Assay in all cases: glycan array binding signal (z-score within array); higher = stronger binding
# Settings in all cases: glycan notation: IUPAC condensed, linker removed
# [1] = target: Neu5Ac(a2-6)Gal(b1-4)GlcNAc(b1-2)Man(a1-6)[Man(a1-3)]Man(b1-4)GlcNAc(b1-4)GlcNAc
# Outline: (§1)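 From the Consortium for Functional Glycomics database, 3228 arrays were curated, keeping only those whose protein sequence was available. Binding is given as a within-array Z-score averaged across arrays sharing a protein sequence and across linkers. Negative Z-scores can be read as non-binding.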
# [2] = target: Neu5Ac(a2-6)Gal(b1-4)GlcNAc(b1-2)[Neu5Ac(a2-6)Gal(b1-4)GlcNAc(b1-4)]Man(a1-3)[GlcNAc(b1-4)][Neu5Ac(a2-6)Gal(b1-4)GlcNAc(b1-2)[Neu5Ac(a2-6)Gal(b1-4)GlcNAc(b1-6)]Man(a1-6)]Man(b1-4)GlcNAc(b1-4)GlcNAc
# Outline: as §1
# [3] = target: Neu5Ac(a2-6)Gal(b1-4)GlcNAc(b1-2)[Neu5Ac(a2-6)Gal(b1-4)GlcNAc(b1-4)]Man(a1-3)[GlcNAc(b1-4)][Neu5Ac(a2-6)Gal(b1-4)GlcNAc(b1-4)Man(a1-6)]Man(b1-4)GlcNAc(b1-4)GlcNAc
# Outline: as §1
# [4] = target: Neu5Ac(a2-6)Gal(b1-4)GlcNAc(b1-2)[Neu5Ac(a2-6)Gal(b1-4)GlcNAc(b1-6)]Man(a1-6)[Neu5Ac(a2-6)Gal(b1-4)GlcNAc(b1-2)Man(a1-3)][GlcNAc(b1-4)]Man(b1-4)GlcNAc(b1-4)GlcNAc
# Outline: as §1
# [5] = target: Neu5Ac(a2-6)Gal(b1-4)GlcNAc(b1-3)Gal(b1-3)GlcNAc
# Outline: as §1
# [6] = target: Neu5Ac(a2-6)Gal(b1-4)GlcNAc(b1-3)Gal(b1-4)GlcNAc
# Outline: as §1
# [7] = target: Neu5Ac(a2-6)Gal(b1-4)GlcNAc(b1-3)Gal(b1-4)GlcNAc(b1-2)Man(a1-3)[Neu5Ac(a2-6)Gal(b1-4)GlcNAc(b1-3)Gal(b1-4)GlcNAc(b1-2)Man(a1-6)]GalNAc
# Outline: as §1
# [8] = target: Neu5Ac(a2-6)Gal(b1-4)GlcNAc(b1-3)Gal(b1-4)GlcNAc(b1-3)Gal(b1-4)GlcNAc
# Outline: as §1
# [9] = target: Neu5Ac(a2-6)Gal(b1-4)GlcNAc(b1-3)Gal(b1-4)GlcNAc(b1-3)Gal(b1-4)GlcNAc(b1-2)Man(a1-3)[Neu5Ac(a2-6)Gal(b1-4)GlcNAc(b1-3)Gal(b1-4)GlcNAc(b1-3)Gal(b1-4)GlcNAc(b1-2)Man(a1-6)]GalNAc
# Outline: as §1
# [10] = target: Neu5Ac(a2-6)Gal(b1-4)GlcNAc(b1-3)Gal(b1-4)GlcNAc(b1-3)GalNAc
# Outline: as §1
# [11] = target: Neu5Ac(a2-6)Gal(b1-4)GlcNAc(b1-3)Gal(b1-4)GlcNAc(b1-3)[Neu5Ac(a2-6)Gal(b1-4)GlcNAc(b1-3)Gal(b1-4)GlcNAc(b1-6)]GalNAc
# Outline: as §1
# [12] = target: Neu5Ac(a2-6)Gal(b1-4)GlcNAc(b1-3)Gal(b1-4)GlcNAc(b1-6)[Gal(b1-3)]GalNAc
# Outline: as §1
# [13] = target: Neu5Ac(a2-6)Gal(b1-4)GlcNAc(b1-3)Gal(b1-4)[Fuc(a1-3)]GlcNAc(b1-3)Gal(b1-4)[Fuc(a1-3)]GlcNAc
# Outline: as §1
# [14] = target: Neu5Ac(a2-6)Gal(b1-4)GlcNAc(b1-3)GalNAc
# Outline: as §1
# [15] = target: Neu5Ac(a2-6)Gal(b1-4)GlcNAc(b1-3)[Neu5Ac(a2-6)Gal(b1-4)GlcNAc(b1-6)]GalNAc
# Outline: as §1
# [16] = target: Neu5Ac(a2-6)Gal(b1-4)GlcNAc(b1-6)GalNAc
# Outline: as §1
# [17] = target: Neu5Ac(a2-6)Gal(b1-4)GlcNAc(b1-6)[Gal(b1-3)GlcNAc(b1-3)]Gal(b1-4)Glc
# Outline: as §1
# [18] = target: Neu5Ac(a2-6)Gal(b1-4)GlcNAc(b1-6)[Gal(b1-3)]GalNAc
# Outline: as §1
# [19] = target: Neu5Ac(a2-6)Gal(b1-4)GlcNAc6S
# Outline: as §1
# [20] = target: Neu5Ac(a2-6)GalNAc
# Outline: as §1
# [21] = target: Neu5Ac(a2-6)GalNAc(b1-4)GlcNAc
# Outline: as §1
# [22] = target: Neu5Ac(a2-6)GalNAc(b1-4)GlcNAc6S
# Outline: as §1
# [23] = target: Neu5Ac(a2-6)GlcNAc(b1-4)GlcNAc
# Outline: as §1
binder,measurement,setting,value
"InvD YPIII (Yersinia pseudotuberculosis), B1JSC0 (protein) MIKYFSFFKKPEPIVGILPNRQSHHILPTHIRRVAWGTLLLQLFIPLSVSFSPAIAAMKASKADTMVSYSSTEPYVLGSGETVAMVAKKYGITVDELKKINIYRTFSRPFTALTTGDEIDIPRKASPFSVDNNKDNRLSVENTLAGHAVAGATALSNGDVAKSGERMVRSAASNEFNNSAQQWLSQFGTARVQLNINDDFHLDGSAADVLIPLYDNEKSILFTQLGARNKDSRNTVNMGAGVRTFQGNWMYGANTFFDNDLTGKNRRIGVGAEAWTDYLKLSANNYFGITDWHQSRDFIDYNERPANGYDLRAEAYLPSYPQLGGKAMYEKYRGDDVALFGKDNRQKNPHAITAGVNYTPIPLVTIGAEHRAGKGGQNDSNINFQLNYRLGETWQSHIDPSAVAASRTLAGSRYDLVERNNHIVLDYQKQNLVRLSLPDSLAGDPFSQLSVTAQVTATHGLERIDWQSAELMAAGGVLKQTSKNGLEITLPEYQMNRTGGNSYILNAIAYDTQGNASSQASMLITVNAQKINIANSTLVAVPINIEANNSDTSVVTLTLKDDNNIPVTGQDVTFLSPLGTLSAMTDSGNGVYTATLTAGTVSGTTAVSSNINGSALDMTPATVTLNGNSGELSITHSMLVAAPVNIEANGSDTSVVTLTLRDSNNNPVTGQTVTFAGTLGTLGAVTEGSSGVYTATLTAGIMVGTSSITASVNSTALGVTPATVTLNGDSGNLSTTNSTLVAAPVNIEANSSDTSVVTLTLRDNNNNPVTGQTVVFTSTLGTLGNVTEQASGVYTATLTAGTVSGVASLSVSVGGNALGVTPATVTLNGDSGNLSTTNSTLVAAPVNIEANSSDTSVVTLTLRDNNNNPVTGQTVNFAGTLGTLGTVSEGSSGVYTTTLTAGTVAGVASLSVNVGGNALGVTPATVTLNGNSGNLSATNSTLVAAPVNIEANSSDTSVVTLTLRDNNNNPVTGQTVAFTSTLGTLGNVTEQASGVYTATLTAGTVSGVASLSVSVNSNALGVTPATVTLNGDSGNLSTTNSTLVAAPVNIEANSSDTSVVTLTLRDNNNNPVTGQTVAFTSTLGTLGNVTEQASGLYTATLTAGTVSGVASLSVNVGGNALGVTPATVTLNGDSGNLSATNSTLVAAPVNIEANSSDTSVVTLTLRDNNNNPVTGQTVAFTSTLGTLGNVTEQASGLYTATLTAGTVSGVASLSVNVGGTALGVTPATVTLNGDSGNLSTTNSTLVAAPVNIEANSSDTSVVTLTLRDNNNNPVTGQTVAFTSTLGTLGNVTEQASGLYTATLTAGTVSGVASLSVSVNSTALGVTPATVTLNGDSGNLSTTNSTLVAAPVNIEANSSDTSVVTLTLRDNNNNPVTGQTVAFTSTLGTLGNVTEQASGVYTATLTAGTVAGVASLSVNVGGNALGVTPATVTLNGDSGNLSTTNSTLVAAPVNIEANSSDTSVVTLTLRDNNNNPVTGQTVAFTSTLGTLGNVTEQASGVYTATLTAGTVSGVASLSVSVGSSALGVTPATVTLNGDSGNLSTTNSTLVAAPVNIEANNSDTSVVTLTLRDNNNNPVTGQTVAFTSTLGTLGNVTEQASGVYTATLTAGTVSGVASLSVSVNSNALGVTPATVTLNGDSGNLSTTNSTLVAAPVNIEANSSDTSVVTLTLRDNNNNPVTGQTVVFTSTLGTLGNVTEQASGLYTATLTAGTVSGVASLSVSVGGNALGVTGNITLAPGALDAARSILAVNKPSINADDRIGSTITFTAQDAQGNAITGLDIAFMTDLENSQIMTLVDHNDGTYTANINGTQTGIANIAVQSSGATIAGLAATMVTITPGAWNTTQATPVMTVALPITTCQSSSGVYKRYYIGIVTHELYDNYGNEISGILTYNLGAGRYTTVTSQNSSVSGSNGLTRRSNSPVSHFILTSDAYTSQAACYAERIANVNVTITVTAITDDFKTSAVNKVFILGTGSN",glycan array binding signal (z-score),[1],-0.151
same,glycan array binding signal (z-score),[2],0.031
same,glycan array binding signal (z-score),[3],-0.265
same,glycan array binding signal (z-score),[4],-0.206
same,glycan array binding signal (z-score),[5],-0.292
same,glycan array binding signal (z-score),[6],-0.017
same,glycan array binding signal (z-score),[7],-0.414
same,glycan array binding signal (z-score),[8],-0.164
same,glycan array binding signal (z-score),[9],0.573
same,glycan array binding signal (z-score),[10],-0.132
same,glycan array binding signal (z-score),[11],0.37
same,glycan array binding signal (z-score),[12],-0.125
same,glycan array binding signal (z-score),[13],-0.174
same,glycan array binding signal (z-score),[14],-0.132
same,glycan array binding signal (z-score),[15],-0.311
same,glycan array binding signal (z-score),[16],0.072
same,glycan array binding signal (z-score),[17],-0.252
same,glycan array binding signal (z-score),[18],0.289
same,glycan array binding signal (z-score),[19],-0.259
same,glycan array binding signal (z-score),[20],-0.203
same,glycan array binding signal (z-score),[21],-0.312
same,glycan array binding signal (z-score),[22],-0.154
same,glycan array binding signal (z-score),[23],-0.286
